Experimental findings from PubChem BioAssay AID1963576 (National Center for Advancing Translational Sciences (NCATS), 2024) are described below.

Each structure is given as a SMILES string. About 60 (0.1%) of roughly 46,000 compounds were called active. Another 3% or so got no clear call; they are omitted. Calls follow the shape of the dose curve; as a rule, active = well fitted inhibition curve with a large enough effect; inconclusive = small, poorly fitted or top-dose-only effect; inactive = no such curve, though single readings can be large or run the other way. Some of the results follow.

The test is described as follows: Primary qHTS assay for Inhibitors of ovarian cancer metastasis using an organotypic tumor microenvironment (TME) model. Also: nearly all actives have a fitted effect of over 65% in size.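 As to activity change, negative = inhibition: plate controls were DMSO wells for no effect and tomatine positive control wells for full effect.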 The conditions noted are these: SKOV3ip1-GFP adhesion/invasion on 3D omental model, fluorescence; series mostly up to 45.8 µM; activity change, negative = inhibition: at the top concentration. The method in brief:
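qHTS, 4-pt dose (0.36-46 umol/L); SKOV3ip1-GFP, 1,200 cells/well, no FBS; primary omental fibroblast/mesothelial co-culture 48 h pre-grown; 2 h RT + 16 h 37 C; PBS wash, 4% PFA; GFP count 488/509 nm.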
A general note: Quantitative high-throughput screening tests each substance at several concentrations.
On to `COC(=O)NNC(=O)C1CCC(C)CC1` (centres undefined), for which the “activity change, negative = inhibition” value was inactive: 2.06%. On the same count and under the same terms, then `CCOc1ccc(CCNc2ncnc3onc(-c4ccc(F)cc4)c23)cc1OCC`, with inactive: 11.5%; and `CCN(CC)CCCNC(=O)CCc1c(C)n(CC)c2cc(-c3ccccc3OC)nn2c1=O`, with inactive: 1.45%; and `Cc1ncc(COC(=O)C(C)C)c2cc(C(=O)Nc3ccccc3C(F)(F)F)c(=O)oc12`, with inactive: -7%. Same read-out and setting: then `CCCCn1c(CNC(=O)C23CC4CC(CC(C4)C2)C3)nnc1SCC(=O)Nc1ccccc1`, with inactive: -6.98%; and `O=S(=O)(c1ccc(-c2cc(C(F)(F)F)on2)s1)N1CCN(c2cccc(Cl)c2)CC1`, with inactive: -5.48%. As for `CCN1CCN(CCCNC(=O)c2cc3c(s2)-c2c(C)cccc2OC3)CC1`, the “activity change, negative = inhibition” value is inactive: -5.23%. The same measure, in the same setting: then `CCn1ccc2cc(S(=O)(=O)N3CCC(C(=O)NCCOC)CC3)ccc21`, with inactive: 2.61%. For `O=C(c1ccco1)N1CCN(c2nc3ccc(Cl)cc3s2)CC1`, the result was inactive.

For `CCOc1ccccc1CNC(=O)c1[nH]c2ccccc2c1Sc1ccccc1`, the “activity change, negative = inhibition” value was inactive: 3%. Regarding `CCc1nc2ccc(C(=O)NCCc3ccc(OC)c(OC)c3)cc2nc1CC`, the “activity change, negative = inhibition” value was inactive: -4.07%. Consider `Cc1ccc2c(c1)c1c(n2CCc2ccc(C)nc2)CCN(C)C1`, for which the “activity change, negative = inhibition” value is inactive: 25.7%. Same read-out and setting: then `Cc1ccccc1OCC(=O)Nc1ccccc1C(=O)OCc1cc(=O)n2c(C)csc2n1`, with inactive: 15.6%; and `Cc1nn2c(C(F)(F)F)cc(-c3ccc(OC(C)C)cc3)nc2c1C#N`, with inactive: -0.154%. Same read-out and setting: then `COc1ccc(C(CC(=O)Nc2ccc(OC)c(OC)c2)N2Cc3ccccc3C2=O)cc1` (centres undefined), with inactive: 9.14%; and `COc1ccc(OC)c(CCNC(=O)c2ccc3[nH]c(C)c(C)c3c2)c1`, with inactive: 1.14%. On the same count and under the same terms, next, `COCCn1c(C)cc(O)c(C(c2ccccc2OC)N2CCCCC2)c1=O` (centres undefined): inactive: 1.17%; `COc1cccc(CNC(=O)c2cc3c(=O)n(C)c4ccccc4c3n2C)c1`: inactive: -13.3%; `COc1ccccc1CCNC(=O)CCc1c(C)c2cc3c(C)coc3cc2oc1=O`: inactive: 13%.

As for `Cc1ccc(C)c(N2CCN(C(=O)c3cccn3-c3nnc(N4CCCCC4)s3)CC2)c1`, the compound was called inactive.

As for `Cc1ccc2c(CC(=O)Nc3c(C(=O)Nc4cccc(Cl)c4)oc4ccccc34)coc2c1C`, the “activity change, negative = inhibition” value was inactive: 3.96%.

Consider `Cc1ccc2nc(SCc3nc(-c4ccccc4C)no3)[nH]c2c1`, for which the “activity change, negative = inhibition” value was inactive: -4.95%. Consider `COc1ccc2cc(CNc3ccccc3)c(=O)n(CC(=O)Nc3ccc(C)cc3C)c2c1`, for which the result was inactive.

Regarding `Cc1ccc(N2CCN(C(=O)C3CCC(CNS(=O)(=O)c4ccc(Br)s4)CC3)CC2C)cc1` (centres undefined), the “activity change, negative = inhibition” value was inactive: -3.95%. Turning to `Cc1ccc(NC(=O)Cn2c(=O)c(C(F)(F)F)nc3ccccc32)c(C)c1`, the outcome was inactive. Take `CCCCN(CC)CCNC(=O)Cn1c(=O)c2cccn2c2cccnc21`: the result was inactive. On the same count and under the same terms, then `Cc1ccccc1Cn1c(Oc2ccccc2F)nc2c1c(=O)n(C)c(=O)n2C`, with “inactive”. As to `Cc1ccc(Cl)cc1Nc1sc(C(=O)c2ccccc2)c(N)c1S(=O)(=O)c1ccccc1`, the “activity change, negative = inhibition” value was inactive: -8.98%. Still for that read-out and setting: next, `COc1ccc(NC(=O)CSC2=Nc3ccccc3C3=NC(Cc4ccccc4)C(=O)N23)cc1Cl` (centres undefined): inactive: 5.35%; `CN(Cc1ccccc1)C(=O)Cn1ncc2c3ccccc3n(Cc3cccc(Cl)c3)c2c1=O`: inactive: -7.62%. The same measure, in the same setting: then `Cc1ccc(Nc2cc(C(=O)NC3CCCC3)c3ccccc3n2)c(C)c1`, with inactive: -3.95%; and `COc1cc(C2c3c(oc4ccccc4c3=O)C(=O)N2Cc2ccccc2Cl)ccc1O` (centres undefined), with inactive: 9.65%. Regarding `COc1cc(CCC(=O)NCc2ccc3c(c2)CCN3C(=O)c2cccc(C)c2)cc(OC)c1OC`, the “activity change, negative = inhibition” value is inactive: -9.08%.

`Cc1cc(C)c2oc(-c3cccc(NC(=O)c4cc5ccccc5o4)c3)nc2c1`: the compound was classed as inactive.

As to `CC(C)(C)c1ccc(C(=O)N2CC(=O)Nc3ccc(F)cc3C2c2ccc(F)cc2)cc1` (centres undefined), the “activity change, negative = inhibition” value is inactive: -4.04%. Same read-out and setting: then `CCc1cnc2c(c1SCC(=O)NCc1ccccc1)c(=O)n(C)c(=O)n2C`, with inactive: 0.735%. Turning to `CCN1c2ccccc2-c2nc(SCC(=O)Nc3cc(OC)cc(OC)c3)ncc2S1(=O)=O`, the “activity change, negative = inhibition” value is inactive: -7.32%. Still for that read-out and setting: then `CCCN(C(=O)c1c(C)oc2ncn(CC(C)C)c(=O)c12)c1ccccc1C`, with inactive: 0.659%; and `COc1ccc(-c2nn(C)c3sc(C(=O)Nc4cc(OC)c(OC)c(OC)c4)cc23)cc1OC`, with inactive: -1.77%. Same read-out and setting: then `CCOc1ccccc1NC(=O)CSc1nnc(CC)c(CC)n1`, with inactive: 6.72%. Consider `COc1ccccc1OCCCn1c(C2CC(=O)N(c3ccc(F)cc3)C2)nc2ccccc21` (centres undefined), for which the outcome was inactive. `Cc1cccc2nc(Cn3c(=O)n(-c4ccccc4)c(=O)c4c5c(sc43)CCC5)cc(=O)n12`: the “activity change, negative = inhibition” value is inactive: 2.21%. Take `COc1ccc(CCNC(=O)c2c(Nc3ccccc3C)sc(C(=O)c3ccccc3)c2N)cc1OC`: the “activity change, negative = inhibition” value was inactive: -12.4%. Still for that read-out and setting: then `CC(C)n1c(SCC(=O)c2ccc(F)cc2)nc2c(sc3ccccc32)c1=O`, with inactive: 5.13%. For `COc1ccc(C)cc1NC(=O)C1CCN(S(=O)(=O)Cc2ccccc2)CC1`, the result was inactive. As for `Cc1ccccc1OCC(=O)Nc1nnc(SCc2cc(=O)n3cccc(C)c3n2)s1`, the “activity change, negative = inhibition” value is inactive: 3.69%. Still for that read-out and setting: then `Cc1ccc(O)c(NC(=O)C2=CC(c3cccs3)=NS(=O)(=O)N2C)c1`, with inactive: 8.45%; and `COc1cccc(CNC(=O)c2cc3cc(C)ccc3n2C)c1`, with inactive: -42.6%. The same measure, in the same setting: then `COc1cccc(CN2CCCN(Cc3ccc(F)cc3)S2(=O)=O)c1`, with inactive: 2.63%.
